# Assay results as given in paper PMC12136788.
# This is one part of the list.
# B1: chr8:122973292:122973393:+|3pUTR|ENSG00000178764|msi1|total|mutant (ssRNA)
# RNA: GGGAGUUCUACAGUCCGACGAUCAGAGAUGGUCUCUCCCCAGCCAUGGGCCACCCUUGCCAGUGACUCCAAGUGGAACUACUCCGCUCGCGUGUGCCUGGAGGGUGCGGGAAGUCCAGCGACUCUCAGACGCACCUCCCAGAGCAACAGAGGAUUGAGCAUCA
# B2: ENSG00000070961:be:win_1101|CDS|ENSG00000070961|bound_else_gene|NA|bound_elsewhere_windowed (ssRNA)
# RNA: GGGAGUUCUACAGUCCGACGAUCAAAACUGGCUGUUCAGAUUGGCAAAGCAGGUCUGUUGAUGUCUGCCAUCACAGUUAUCAUUCUAGUAUUAUAUUUUGUCAUUGACACCUUCUGGGUUCAGAAAAGACCAUGGCUUGCUGACAACAGAGGAUUGAGCAUCA
# B3: ENSG00000051108:stop:overlap|stop_codon|ENSG00000051108|stop_codon|NA|stop_codon (ssRNA)
# RNA: GGGAGUUCUACAGUCCGACGAUCAUGGGUGGCUUCAGCUUUCCUGGUUCCAGCAGAUAUAUGCACGACAGUACUACAUGCAAUAGAAGGCACUGAUCCUGAAACUGAAGACCCCAACCACCUCCCUCCAGACAGGGAUGUACUCAACAGAGGAUUGAGCAUCA
# B4: ENSG00000168288:stop:overlap|stop_codon|ENSG00000168288|stop_codon|NA|stop_codon (ssRNA)
# RNA: GGGAGUUCUACAGUCCGACGAUCGGAGUAUCUUCACUAAUGCAACACCAGACAGCCAUAUUAUGAAGAAAUUAAGUGGAAAUUAGCAGAAAUAUCCAUUCAUUUGCUGUACUAUUUGUAUGUAAUAUUUGGGUUGAUCUAUAACAACAGAGGAUUGAGCAUCA
# B5: ENSG00000198589:be:win_9651|3pUTR|ENSG00000198589|bound_else_gene|NA|bound_elsewhere_windowed (ssRNA)
# RNA: GGGAGUUCUACAGUCCGACGAUCCUUCAAGUGGUCCCUCUUUUUUUCCUACACACUCAGCUCUUCUCUAAAAGCAAGGAUUUGGAAUGAACAAUUCAGUUUGACAGAAAAAGCUGAAUAAAAUGGCAUCUGUAAUUGAAUUGUCAACAGAGGAUUGAGCAUCA
# B6: chr20:31606305:31606406:+|3pUTR|ENSG00000125968|msi1|FALSE|unique (ssRNA)
# RNA: GGGAGUUCUACAGUCCGACGAUCUGAGGCACUGGCGAGGAGAGGGCGCUCCUCUCUGCACACCUACUAGUCACCAGAGACUUUAGGGGGUGGGAUUCCACUCGUGUGUUUCUAUUUUUUGAAAAGCAGACAUUUUAAAAAAUGCAACAGAGGAUUGAGCAUCA
# B7: chr17:55719626:55720665:-|three_prime_utr|ENSG00000166292|control|control|control (ssRNA)
# RNA: GGGAGUUCUACAGUCCGACGAUCUGAAAAAUCAGCUUUCUAUUUACAUGAAACACUUUGGGGGUCAUGGGAGUGCACAGCAUUAGACAGUAUUUGGUUCACCCUGUAAAGUAGCCAAGAAAAGAUGAGAAAAAUCAAGAUAGGCAACAGAGGAUUGAGCAUCA
# B8: ENSG00000198898:stop:overlap|stop_codon|ENSG00000198898|stop_codon|NA|stop_codon (ssRNA)
# RNA: GGGAGUUCUACAGUCCGACGAUCCUCUGAGAGCUUACGUAAAAGAACAUUACCCGAAUGGAGUCUGCACUGUAAGUCAUCAGUAGCAGCUUUGUGUGUGUGUUUUGUGUAAAUGUGAGUCUUUAGCGUCUCUUAAAAUUUACACAACAGAGGAUUGAGCAUCA
# B9: chr15:73560698:73560803:-|3pUTR|ENSG00000156642|msi1_unk|total|mutant (ssRNA)
# RNA: GGGAGUUCUACAGUCCGACGAUCUUUUGGGCUUGAUGUGCUGUGAAUGUUGCUUUUUUUUUUCCUUUGUUAAAAUAUUUAAACCGAAGUGAAAAGGUCCUCUGAGGAUCAGAUCAUGCAUGCGCCAUUUUUUACUUAAUGCAGCAACAGAGGAUUGAGCAUCA
# B10: chr9:104535772:104536723:-|CDS|ENSG00000204246|control|control|control (ssRNA)
# RNA: GGGAGUUCUACAGUCCGACGAUCGACAAGCUCAUUUCUCUGUUUUAUGGGGUAGUGACACCCAUGCUGAAUCCUAUACUCUAUAGCUUGAGAAAUAAGGAUGUAAAAGCUGCUGUAAAAUAUUUGCUGAACAAAAAACCAAUUCAACAGAGGAUUGAGCAUCA
# B11: chr5:149847740:149847841:+|3pUTR|ENSG00000155846|unk|FALSE|unique (ssRNA)
# RNA: GGGAGUUCUACAGUCCGACGAUCAUUGAACAAAGCUGCUUCUGUCUGUGAGUUUCCAUGGUGUUGACGUUCCACUGCCACAUUAGUGUCCUCGCUUCCAACGGGUUGUCCCGGGUGCACCUCGAAGUGCCGGGUCCGUCACCCCAACAGAGGAUUGAGCAUCA
# B12: chr1:113706032:113706133:-|CDS|ENSG00000116793|unk|FALSE|unique (ssRNA)
# RNA: GGGAGUUCUACAGUCCGACGAUCCAAUGCCUAUCAGCAAGGAGUAGGUUAUCAGAUGCUGGGAAAUGUUGUCACUAUUGGAUUAGCAUUUUUUCCAUUCUUACAUCGACUUUUCCGUGAGAAGAGCCUUGACCAACUAAAGUCCAACAGAGGAUUGAGCAUCA
# B13: ENSG00000175215:stop:overlap|stop_codon|ENSG00000175215|stop_codon|NA|stop_codon (ssRNA)
# RNA: GGGAGUUCUACAGUCCGACGAUCUUGAGGAGCUGAGCGGAGCAGAGGACGUCUACACCAGCCUUGGGCAGCUGCGGGCCCCUUAGCCUGCCCUGCUUCCAAGCGACGGCCAUCCCAGUAGGGGACUUUCCCACACUGUGCCUUCAACAGAGGAUUGAGCAUCA
# B14: chr17:58090057:58090109:+|3pUTR|ENSG00000264364|msi1_unk|FALSE|overlapping (ssRNA)
# RNA: GGGAGUUCUACAGUCCGACGAUCGGGUAGGAUUAGCUUGAAUCUUUUUUUUCUUUACAUUUUUCUCCUGUCUGCUCCCUGCUUAGCCCUCAGUUUCCUCAUUCCUCUGGAGUUCUCUUAGAGCAGCCCCUGUUGUUAGUUGGCCAACAGAGGAUUGAGCAUCA
# B15: chr17:43640388:43641946:-|three_prime_utr|ENSG00000005102|control|control|control (ssRNA)
# RNA: GGGAGUUCUACAGUCCGACGAUCCCUCUCCACAUCUUUCCCUGACUCUUGGAUAUGAAACUGCCCAGCAUUCCUGGGAGUCUUAGGAUUUUCUAGGAAGUUCUGUCCAGCCUCUUAGCAGCCUCUUCCCUAGGGCCUUUGCUCCAACAGAGGAUUGAGCAUCA
# B16: ENSG00000198589:be:win_5351|CDS|ENSG00000198589|bound_else_gene|NA|bound_elsewhere_windowed (ssRNA)
# RNA: GGGAGUUCUACAGUCCGACGAUCAUUCAGUUUCACAAGAUCCGGUUUCAAAUAUGAGUAUUACAGAGAGGCUUGAACACGCUUUGGAAAAGGCAGCUCCUCUCCUUCGUGAGAUUUUUGUGGAUUUUGCACCUUUUCUUUCUCCAACAGAGGAUUGAGCAUCA
# B17: chr3:100728682:100728848:+|CDS|ENSG00000114354|unk|FALSE|unique (ssRNA)
# RNA: GGGAGUUCUACAGUCCGACGAUCUAAUGGCCAGCCAAGACCCCUUGAAUCAAGUCAGGUGAAAUAUCUCCGUCGAGAACUGAUAGAACUUCGAAAUAAAGUGAAUCGUUUAUUGGAUAGCUUGGAACCACCUGGAGAACCAGGCAACAGAGGAUUGAGCAUCA
# B18: chr5:128187618:128187661:+|3pUTR|ENSG00000064651|msi1_unk|total|mutant (ssRNA)
# RNA: GGGAGUUCUACAGUCCGACGAUCUCCUUUAUAAGUCAUUAAAAUAAUGUUUCAUCAAAUGGUUAAAUGGACCACUGGUUUCUCCGAGAAAUGUUUUCCGGCUUAAUUCAUUCAAUUGUCAAGUACACUCCGUCUUAAUACACUCAACAGAGGAUUGAGCAUCA
# B19: chr9:86945015:86945116:-|3pUTR|ENSG00000180447|msi1|FALSE|unique (ssRNA)
# RNA: GGGAGUUCUACAGUCCGACGAUCUUGGUUUUGGAUAAGUUUGAGCCCUUGACCUUAAUUUCAUUGCUACCACUCUGAUCUCUUAGCACAUUUCUUAGGAUUAAGGGUCCAAAAAUGCUGAUCUAAGGGGUUGCCAUGGUGUUGCAACAGAGGAUUGAGCAUCA
# B20: chr12:54350855:54350965:+|3pUTR|ENSG00000111481|msi1|FALSE|unique (ssRNA)
# RNA: GGGAGUUCUACAGUCCGACGAUCUUGCCCUGACAUUUUUGUAAAUUCUGUGCCCUUUGCUGUAGCUACACUUCAGAUUAAAGUAGGAGAAAGAAUGUGCUGAGUGUUUUCCUCCCUUUGCCUCUACCUGGCCCUCAUCCCAACCAACAGAGGAUUGAGCAUCA
# B21: chr14:59746188:59746291:-|CDS|ENSG00000139970|unk|FALSE|unique (ssRNA)
# RNA: GGGAGUUCUACAGUCCGACGAUCCUGGGUACACCCGGCCCCUCCUUACCAGAUGUGCCUGGGAUAGAGUCUCGUGGCUUAUUUAGUUCUGAUUCUGGAAUAGAGAUGACUCCUGCAGAGUCCACGGAAGUGAACAAGAUCUUACAACAGAGGAUUGAGCAUCA
# B22: chr1:213005240:213005351:-|CDS|ENSG00000174606|unk|total|mutant (ssRNA)
# RNA: GGGAGUUCUACAGUCCGACGAUCGAACCCAGUGGAAUUCUUCCGCCCUGAUAUUUCUCUGUUGGACAGAGACAAUGUUGGAUCCGUUUUACUCUUACAGCCCAAAAUUCCAUAUGCUGCCUGCCCUGCAAUCUGCGCCGCAAACAACAGAGGAUUGAGCAUCA
# Biological target: MSI1 full-length (mouse, UniProt Q61474 1-362)
# UniProt Q61474, sequence (Q61474 whole entry): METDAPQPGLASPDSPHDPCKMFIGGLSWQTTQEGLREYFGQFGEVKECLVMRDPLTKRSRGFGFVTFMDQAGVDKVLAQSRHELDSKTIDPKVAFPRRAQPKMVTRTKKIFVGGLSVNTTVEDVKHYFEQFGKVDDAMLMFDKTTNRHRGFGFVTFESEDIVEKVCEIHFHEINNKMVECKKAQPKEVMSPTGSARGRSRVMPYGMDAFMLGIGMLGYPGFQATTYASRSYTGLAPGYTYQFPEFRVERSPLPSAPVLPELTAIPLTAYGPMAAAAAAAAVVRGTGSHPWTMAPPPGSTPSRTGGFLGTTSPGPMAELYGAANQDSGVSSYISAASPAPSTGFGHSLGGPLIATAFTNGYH
# Test: nsRBNS (natural sequence RNA bind-n-seq); RBNS binding buffer (assumed for nsRBNS): 25 mM Tris pH 7.5, 150 mM KCl, 3 mM MgCl2, 0.01% Triton X-100, 500 ug/ml BSA, 20 U/ml SUPERase-In, 4 C; UNK is unkempt and MSI1 is Musashi-1; names of the RNAs are library labels; protein concentration not given here; high values mean tight binding
row,Binder,binding signal [enrichment R]
1,B1,0.385
2,B2,4
3,B3,0.502
4,B4,1.08
5,B5,0.318
6,B6,0.414
7,B7,1.7
8,B8,0.84
9,B9,0.447
10,B10,0.458
11,B11,0.593
12,B12,0.304
13,B13,0.404
14,B14,4.46
15,B15,0.806
16,B16,0.391
17,B17,0.576
18,B18,0.917
19,B19,0.273
20,B20,0.649
21,B21,0.602
22,B22,0.375
